Among all 310,000 compounds or so, about 14,000 (4.5%) showed an effect of 50% or more. The effect is printed as a negative number. The list shows a part of the results.
Each molecule was assayed against human ether-à-go-go-related gene (hERG) potassium channel (human, UniProt Q12809) (assay: primary screen, population patch clamp on CHO cells stably expressing hERG).
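Note: peak tail current of the secondary pulse compared with the same well before compound.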

Sequence of human ether-à-go-go-related gene (hERG) potassium channel (Q12809 whole entry, looked up): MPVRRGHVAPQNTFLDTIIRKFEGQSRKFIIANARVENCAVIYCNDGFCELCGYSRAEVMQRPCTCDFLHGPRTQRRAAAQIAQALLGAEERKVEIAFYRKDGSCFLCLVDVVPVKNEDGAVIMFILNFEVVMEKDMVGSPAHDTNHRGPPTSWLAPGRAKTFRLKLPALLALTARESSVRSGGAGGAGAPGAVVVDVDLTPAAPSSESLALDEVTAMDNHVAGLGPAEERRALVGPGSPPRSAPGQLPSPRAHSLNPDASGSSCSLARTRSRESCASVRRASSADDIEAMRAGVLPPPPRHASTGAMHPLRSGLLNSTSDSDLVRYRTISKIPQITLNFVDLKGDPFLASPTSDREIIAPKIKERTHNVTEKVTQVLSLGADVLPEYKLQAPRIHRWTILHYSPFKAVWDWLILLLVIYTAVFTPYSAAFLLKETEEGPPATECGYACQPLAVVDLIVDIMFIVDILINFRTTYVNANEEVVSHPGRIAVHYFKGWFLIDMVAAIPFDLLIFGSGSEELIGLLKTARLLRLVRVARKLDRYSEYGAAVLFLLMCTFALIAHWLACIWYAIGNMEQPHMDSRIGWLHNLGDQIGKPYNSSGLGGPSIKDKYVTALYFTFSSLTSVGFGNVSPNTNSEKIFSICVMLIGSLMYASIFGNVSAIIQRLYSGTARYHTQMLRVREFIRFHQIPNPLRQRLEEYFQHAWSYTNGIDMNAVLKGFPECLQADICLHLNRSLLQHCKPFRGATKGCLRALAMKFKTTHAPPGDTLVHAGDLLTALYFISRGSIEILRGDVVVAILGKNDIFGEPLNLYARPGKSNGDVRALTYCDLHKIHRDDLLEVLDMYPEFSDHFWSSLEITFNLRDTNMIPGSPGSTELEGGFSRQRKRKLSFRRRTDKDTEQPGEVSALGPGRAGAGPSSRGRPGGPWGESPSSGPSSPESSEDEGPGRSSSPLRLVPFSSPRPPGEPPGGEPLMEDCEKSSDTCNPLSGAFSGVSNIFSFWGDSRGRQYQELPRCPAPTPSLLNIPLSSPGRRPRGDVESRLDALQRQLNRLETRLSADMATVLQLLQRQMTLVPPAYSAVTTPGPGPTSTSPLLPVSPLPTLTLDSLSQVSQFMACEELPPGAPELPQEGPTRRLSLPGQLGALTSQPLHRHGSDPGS

Row | SMILES | hERG current change (%, negative = inhibition) at 10uM [%]
1 | CC(C)c1ccc(NC(=O)CCNC(=O)N2C[C@H]3C[C@@H](C2)c2cccc(=O)n2C3)cc1 | 5.62
2 | Cc1ccc(NC(=S)N2CC(C)OC(C)C2)cc1C (centres unmarked) | 13.1
3 | NNc1nccc(Nc2ccccc2C(=O)O)n1 | 8.41
4 | COc1ccccc1-c1nnc(NC(C)=O)s1 | 3.11
5 | Cc1cccc(NC(=O)C(=O)NCc2ccc3c(c2)OCO3)c1C | -16.5
6 | Cc1cc(Nc2ccc(Br)c(C)c2)n2nc(C)nc2n1 | -35.5
7 | O=C(Nc1cc(C(F)(F)F)ccc1-n1cnc2ccccc21)c1ccccc1 | -32
8 | Cc1nc2ncnn2c(Nc2ccc3c(c2)OCCO3)c1C | 0.223
9 | CC1(C)CN=C(N(C(=O)Nc2ccccc2)c2ccccc2F)S1 | -2.49
10 | Cc1cccc(OCC(O)Cn2ccnc2C)c1 (centres unmarked) | -9.12
11 | CCOc1nc(-c2ccccc2)ccc1-c1noc(-c2ccncc2)n1 | 21.2
12 | Cc1cc(C(=O)OCC(=O)Nc2ccccc2[N+](=O)[O-])c2ccccc2n1 | 8.56
13 | CC(C)(C)NC(=O)NC(=O)COC(=O)Cn1cnc2ccccc2c1=O | -8.14
14 | COC(=O)c1c(NC(=O)CN2CCN(S(=O)(=O)c3ccccc3)CC2)sc2c1CCC(C)C2 (centres unmarked) | 9.27
15 | CCC(Sc1nncn1C)C(=O)Nc1cc(C)on1 (centres unmarked) | 1.27
16 | CCN(CC)c1nc(OC)nc(-n2nnc(C(C)=O)c2C)n1 | 1.29
17 | O=C(CN(Cc1ccco1)C(=O)c1ccccc1F)Nc1ccccc1C(F)(F)F | 2.3
18 | COc1ccc(N2C(=O)C3CCCN3C2c2ccc(F)cc2)cc1Cl (centres unmarked) | 3.03
19 | CC1CN(C(=O)COC(=O)COc2ccc(C#N)cc2)CC(C)O1 (centres unmarked) | 7.34
20 | Cn1cc([N+](=O)[O-])c(C(=O)Nc2ccc3c(c2)OCCO3)n1 | 5.3
21 | COc1ccc(NS(=O)(=O)c2c(C)n(C)c(=O)n(C)c2=O)cc1OC | 7.47
22 | O=C(c1cccc(Cl)c1)N1CCN(c2ncccn2)CC1 | 4.92

Row | SMILES | hERG current change (%, negative = inhibition) at 10uM [%]
23 | COc1ccccc1CNC(=O)COC(=O)Cn1cnc2ccccc21 | 23.2
24 | CC(=O)c1ccc(N2CCN(C(=O)[C@H](C)NC(=O)c3ccccc3Cl)CC2)cc1 | -9.57
25 | Cc1cc(N2CCCc3ccccc32)n2ncnc2n1 | 6.99
26 | COC(=O)CN(c1cc([N+](=O)[O-])ccc1OC)S(C)(=O)=O | 14.4
27 | Cc1ccccc1OC(C)C(=O)Nc1ccc2c(c1)OCCO2 (centres unmarked) | -9.26
28 | CCOC(=O)C1CCCN(C(=O)C2CCN(S(=O)(=O)c3ccc4ccccc4c3)CC2)C1 (centres unmarked) | -23.3
29 | COc1ccccc1N1CCN(C2CCCN(Cc3ccccc3OCCO)C2)CC1 (centres unmarked) | -25.5
30 | CCOC(=O)C1CCCN(CC(=O)c2c[nH]c3ccc(C)cc23)C1 (centres unmarked) | -43.3
31 | CC(=O)Nc1cccc(NC(=O)C2CCCN2C(=O)Nc2ccccc2C)c1 (centres unmarked) | -0.921
32 | CCOC(=O)c1c(NC(=O)CSc2ncccn2)sc(C(=O)NC)c1C | -21.2
33 | O=C(CCN1C(=O)[C@H]2CC=CC[C@H]2C1=O)NCc1nc(-c2ccccc2)no1 | 16.1
34 | Cn1cc(SCC(=O)NCc2ccc3c(c2)OCO3)c2ccccc21 | -13.1
35 | COC(=O)c1ccc(N2CCN(S(=O)(=O)c3ccc4ccccc4c3)CC2)c([N+](=O)[O-])c1 | 19.6
36 | N/C(Cc1cccs1)=N\OC(=O)COc1ccc(Br)cc1Cl | -2.16
37 | CC(=O)c1cccc(OCCN2C(=O)NC(C)(C)C2=O)c1 | -2.54
38 | CC1=NNC(=O)c2ccccc2O1 | 21.7
39 | O=C(Nc1cccnc1Cl)c1cc(-c2ccco2)on1 | 22.6
40 | CN(C(=S)NC(=O)/C=C/c1ccc(F)cc1)C1CCCCC1 | 4.54
41 | CCCC1CCC(c2ccc(C(N)=O)cc2)CC1 (centres unmarked) | 6.91
42 | COc1ccc(Cl)cc1C(=O)Nn1c(-c2cccs2)nc2ccccc2c1=O | -5.47
43 | Cc1nn(-c2ccccc2)c2c1P(=O)(O)/C(=C1\N(C)c3ccccc3C1(C)C)C=N2 | 1.3
44 | O=C(NCc1nc2ccccc2[nH]1)C1=C[C@@H](c2ccc(C(F)(F)F)cc2)C[C@@H](OCc2ccc(CO)cc2)O1 | 21.8
